Data: the supplement of paper PMC10126150
Values marked as one replicate rest on one cluster of the flow cell; about a third of the high ones do not repeat.

System: ATP
Assay: switch fluorescence ratio, 500 uM ATP over buffer (Cy3 cluster intensity, sum of 5 cycles each) (fold (ratio)); higher = stronger signal-on switching upon ATP binding; sequences stand for … in TCGTCGGCAGCGTCAGATGTGTATAAGAGACAGTTTTTTTTTTTTTTTTTTTTTTTTT…TC
Details: aptamer strand: ATP DNA aptamer (quencher-CACCTGGGGGAGTATTGCGGAGGAAGG + anchor), 100 nM annealed; ATP concentration: 500 uM; one replicate
Procedure, shortened: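 Cy3-labelled switching-strand clusters on a modified Illumina MiSeq flow-cell were annealed to 100 nM quencher-labelled ATP aptamer, imaged in selection buffer, then imaged after 15 min with 500 uM ATP at 22 °C. Five buffer/ATP cycles ran, with NaOH stripping and re-annealing between them. The fluorescence ratio is summed target-cycle over summed buffer-cycle Cy3 intensity per cluster, averaged per switch-domain sequence. Clusters outside 100-1000 RFU were excluded.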
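Note: ATP exposure 15 min at 22 °C before imaging.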

Sequence | switch fluorescence ratio
GAGGGTCGTA | 0.98
AGCTTACTTT | 1.06
TTAGTAATTG | 0.947
GTCGGGTCTG | 1.07
CAAGAGAGTT | 0.999
TTTCAACCTA | 1.05
TAACGTGGGG | 0.985
ACGAGAAAT | 1.07
GGCAGATGCC | 0.99
AGTGAGTCCT | 0.995
CGACTTGATA | 1.07
TAGCATCCAC | 1.24
AGGTACGACT | 1.05
GTTCGGGGAT | 1.04
GTGTGAGAGA | 0.961
GGGAAGTTGA | 0.992
CGGGAGCAGA | 1.17
CGTTCCACTC | 1.04
TTTAAAACAC | 1.04
CAGGTACACC | 1.03
ACAGAGCGGG | 1.01
CCTCATATGA | 1.07
AACGAACGGT | 1.1
GTTTTTACCG | 1.05
TGCCAGTTGA | 1.04

Sequence | switch fluorescence ratio
GCTTTTTATG | 0.991
TACGATTAGA | 1.08
TTGGCATTGG | 1
GACGGAATTT | 1.06
TAGTTTCGTA | 0.992
ATGGGGCTT | 0.976
TGTAAACCAC | 1.06
ACCGAAAAGT | 1.09
AATTAGTAT | 0.977
CAATTGGACG | 1
TCGTGATACT | 5.29
TGAAACGGAC | 1.4
GCATCTTCCT | 1.48
TTGCGACCA | 1.05
GCAGTAGAGG | 0.984
TCAGTAGTTA | 1.02
TAGTTCAACT | 0.974
CTTCCCTCGT | 1.21
AGACCGTTAG | 0.998
CAAGAGCGAG | 1.04
CATTGCTCCG | 1.93
CCGTCGGCGT | 1.04
TCTGCTGGAC | 1.42
ACTTCGTGAA | 1.08
TAGAGAATGT | 0.993

Sequence | switch fluorescence ratio
TTGCTAGACG | 1.06
CCAGACGGGT | 0.987
ACCTGCTGCA | 1.22
TTACGGTGAT | 1.02
GGCAGGTCA | 0.988
AAGCCGGTCG | 1.01
CGGGCCTGTA | 0.943
CAAGCAGGTA | 1.02
ATGCGTATGA | 1
ATCCAATCTG | 0.948
GGCCGAATTT | 0.985
TTATAGCCCG | 1.05
CATGACAGGG | 1.01
AAGTACGTC | 1.13
GGCTGACAGC | 0.978
GTAGATTAGC | 0.961
TCAGTACGAG | 1.02
ATATGTACTT | 1.15
CATAAACATC | 1.03
TGTGGTTACT | 0.986
GGCTGATGCG | 1.02
AGTCGTATGG | 0.933
GACGCAGATG | 1.37
CCCCTGTTC | 1.08
ATTATTCTTA | 1.02

Sequence | switch fluorescence ratio
TCCCTATGGG | 1.1
CTTGTATTGT | 1.01
AGTGGTCTTG | 0.972
GAGACATAGA | 0.984
CAAGGGCAGC | 1.04
GACGGTCGCT | 1.03
TGGAACTTCT | 0.972
ACAGGTGGTA | 1.33
AAGTCGGAA | 0.964
AAACGCATGT | 0.97
CGTGAACCCC | 1.05
CGCGTCGTGC | 1.03
TAGGAAAGCA | 1.05
GGCGTGGTTA | 1.01
CTCCCTTCAA | 1.28
CGTAATAT | 2.94
CTGGAGCTTG | 1.09
TGCGTCATAA | 1.03
GAAATACAGG | 1.01
TTTCCAAGAG | 0.995
CATGTATACG | 1.06
ACACTTTAGG | 1.02
GAGGATTACT | 1
TGGAACTGCG | 0.984
TTAGGGTCG | 0.973

Sequence | switch fluorescence ratio
TTTGAGCGCT | 1.02
TCAATATCTG | 0.978
AAAGTGCCCA | 1.01
CATGCCCGTG | 0.988
TATTGTTG | 0.97
TCACAGCTTT | 0.955
TTCGTCGACC | 0.973
AATACGATGT | 1
AAGCTGACAT | 1.03
AAGTAAACAA | 1.03
GAGTGTACTA | 1.04
AATGAAAACG | 0.903
CGATGGTAAT | 1.14
CTTCGGTTGG | 0.962
TCTAAAATAT | 1.01
TCTTGTATCA | 1.01
CTAGCGTGTA | 1.01
GCAGTGAGGC | 0.974
GGCGTTGGTA | 1
ACAAATGGTG | 1.09
GCACTGTTTC | 1.05
CCAGGTAGGT | 1.5
GCTGGCAGGG | 1.02
ATCAGTCCAG | 1.02
GTAATCGGGA | 1.03

Sequence | switch fluorescence ratio
ATCTGGGAAT | 1
GAGTCTACCG | 0.994
ATGTTGGTCA | 0.991
TCCAGGACAG | 0.979
GGGTTCTGAC | 0.999
CTGATTAATT | 1.02
TATCTGTCCA | 0.954
GTTCACAGCG | 0.994
TGCATATTTG | 0.967
TTAAGCCAGT | 0.991
GCACTATG | 0.967
AGACTTGGGT | 0.973
TCGACAATCG | 1.05
CGGAGTCCAC | 1.09
AAGTCGGGAG | 1
CAATTTATG | 1
TAGGGTTAT | 0.963
CTGCTCGCGA | 4.21
CCCATTTTGG | 0.978
GGGGGAGGAC | 1.01
ACGGCGCTTT | 1.48
TTGCCTGATG | 0.961
TGTGTTTAGA | 1.01
GAAAGTCTAA | 0.994
GTTATGTTGG | 0.966

Sequence | switch fluorescence ratio
CTCTATAAGC | 1.11
GGTAATACTG | 1.14
AATAAGCAGG | 1.01
CGAACACGTA | 1.17
TCAATTTTCA | 1.01
GGAGCCCTGG | 1
TGCGCCTATG | 1.08
GTGAAGGAAA | 0.992
AGGCTCTTGG | 1.01
GGGGAACGTA | 0.932
AGACCAAAAT | 1.05
CTAGCGAGCC | 0.985
CGAGCATGTG | 1.08
AGCGGGGGAA | 1.07
GCCAACTAAT | 1.24
TCTAGATTTG | 0.977
TTAACAATGG | 1.01
TTCAGCGGCC | 1.03
GTTTTGCGGG | 1.02
GGATAGCGGG | 1.03
CAACCACATT | 1.03
TGGTTATCAA | 0.999
TTTGTTACCT | 1.13
TACAAGCCGG | 1.01
AGCAGTTCTG | 1.07

Sequence | switch fluorescence ratio
ACGTTTGACG | 0.944
AGCGATTTAC | 1.46
GACGACAGTT | 1.03
CAAAGAATAC | 1.24
TATCGTCGCT | 1.01
GCGGCACTTG | 1.02
ATACTTGCAC | 1.25
GGTATTACA | 0.994
ACTTGGAAGC | 1.04
AGTGCTGCTT | 0.97
TAGTGATAGC | 1
CTCTACCTTA | 1.11
CAAGTGTGTA | 0.993
CAGGCCAGAT | 0.982
GGTTTCCACG | 0.988
CCTGTTATGC | 1.76
CAACGCCTTT | 0.993
CAGTATTACA | 1
CGTCGAATAA | 1.01
GTATCTTCTG | 1
TACCCATATC | 1.09
TCTTCATGTT | 1.04
TACGGTGATG | 0.998
CCTTTTAATT | 0.981
GCGCTAGGGT | 1.01
